Binding signal data for 31 molecules are collected here from paper PMC9911399, “Two distinct binding modes provide the RNA-binding protein RbFox with extraordinary sequence specificity”.

The chains are these.
B1: AGUCACU (DNA:RNA)
RNA: GGGAGACCGGAAUUCAGAUUGUCCAGUCACUUUAAAUCCCGUCGUAGCCACCA
DNA 1: CAATCTGAATTCCGGTCTCCC
DNA 2: TGGTGGCTACGACGGGATT
B2: CUACAGC (DNA:RNA)
RNA: B1 RNA with A25C, G26U, U27A, C30G, U31C
DNA 1: CAATCTGAATTCCGGTCTCCC
DNA 2: TGGTGGCTACGACGGGATT
B3: CGUGGAG (DNA:RNA)
RNA: B1 RNA with A25C, C28G, A29G, C30A, U31G
DNA 1: CAATCTGAATTCCGGTCTCCC
DNA 2: TGGTGGCTACGACGGGATT
B4: GAGGAAC (DNA:RNA)
RNA: B1 RNA with A25G, G26A, U27G, C28G, C30A, U31C
DNA 1: CAATCTGAATTCCGGTCTCCC
DNA 2: TGGTGGCTACGACGGGATT
B5: UUACUUA (DNA:RNA)
RNA: B1 RNA with A25U, G26U, U27A, A29U, C30U, U31A
DNA 1: CAATCTGAATTCCGGTCTCCC
DNA 2: TGGTGGCTACGACGGGATT
B6: UCUGACA (DNA:RNA)
RNA: B1 RNA with A25U, G26C, C28G, U31A
DNA 1: CAATCTGAATTCCGGTCTCCC
DNA 2: TGGTGGCTACGACGGGATT
B7: GAAGGGG (DNA:RNA)
RNA: GGGAGACCGGAAUUCAGAUUGUCCGAAGGGGUUAAAUCCCGUCGUAGCCACCA
DNA 1: CAATCTGAATTCCGGTCTCCC
DNA 2: TGGTGGCTACGACGGGATT
B8: AGUCGAU (DNA:RNA)
RNA: B1 RNA with A29G, C30A
DNA 1: CAATCTGAATTCCGGTCTCCC
DNA 2: TGGTGGCTACGACGGGATT
B9: AUGUUUA (DNA:RNA)
RNA: B1 RNA with G26U, U27G, C28U, A29U, C30U, U31A
DNA 1: CAATCTGAATTCCGGTCTCCC
DNA 2: TGGTGGCTACGACGGGATT
B10: GUUUGCU (DNA:RNA)
RNA: B1 RNA with A25G, G26U, C28U, A29G
DNA 1: CAATCTGAATTCCGGTCTCCC
DNA 2: TGGTGGCTACGACGGGATT
B11: AAGGGAU (DNA:RNA)
RNA: B7 RNA with G25A, A27G, G30A, G31U
DNA 1: CAATCTGAATTCCGGTCTCCC
DNA 2: TGGTGGCTACGACGGGATT
B12: AGCACAA (DNA:RNA)
RNA: B1 RNA with U27C, C28A, A29C, C30A, U31A
DNA 1: CAATCTGAATTCCGGTCTCCC
DNA 2: TGGTGGCTACGACGGGATT
B13: CCAGCAG (DNA:RNA)
RNA: B7 RNA with G25C, A26C, G29C, G30A
DNA 1: CAATCTGAATTCCGGTCTCCC
DNA 2: TGGTGGCTACGACGGGATT
B14: AAACCCU (DNA:RNA)
RNA: B1 RNA with G26A, U27A, A29C
DNA 1: CAATCTGAATTCCGGTCTCCC
DNA 2: TGGTGGCTACGACGGGATT
B15: GCACAAC (DNA:RNA)
RNA: B1 RNA with A25G, G26C, U27A, C30A, U31C
DNA 1: CAATCTGAATTCCGGTCTCCC
DNA 2: TGGTGGCTACGACGGGATT
B16: UAAAAAU (DNA:RNA)
RNA: B1 RNA with A25U, G26A, U27A, C28A, C30A
DNA 1: CAATCTGAATTCCGGTCTCCC
DNA 2: TGGTGGCTACGACGGGATT
B17: CACGACG (DNA:RNA)
RNA: B7 RNA with G25C, A27C, G29A, G30C
DNA 1: CAATCTGAATTCCGGTCTCCC
DNA 2: TGGTGGCTACGACGGGATT
B18: UAUGUGU (DNA:RNA)
RNA: B7 RNA with G25U, A27U, G29U, G31U
DNA 1: CAATCTGAATTCCGGTCTCCC
DNA 2: TGGTGGCTACGACGGGATT
B19: UAGAACC (DNA:RNA)
RNA: B1 RNA with A25U, G26A, U27G, C28A, U31C
DNA 1: CAATCTGAATTCCGGTCTCCC
DNA 2: TGGTGGCTACGACGGGATT
B20: UGAAGAG (DNA:RNA)
RNA: B7 RNA with G25U, A26G, G28A, G30A
DNA 1: CAATCTGAATTCCGGTCTCCC
DNA 2: TGGTGGCTACGACGGGATT
B21: CUUAAGG (DNA:RNA)
RNA: B1 RNA with A25C, G26U, C28A, C30G, U31G
DNA 1: CAATCTGAATTCCGGTCTCCC
DNA 2: TGGTGGCTACGACGGGATT
B22: CUAUUCC (DNA:RNA)
RNA: B1 RNA with A25C, G26U, U27A, C28U, A29U, U31C
DNA 1: CAATCTGAATTCCGGTCTCCC
DNA 2: TGGTGGCTACGACGGGATT
B23: GGGGACA (DNA:RNA)
RNA: B1 RNA with A25G, U27G, C28G, U31A
DNA 1: CAATCTGAATTCCGGTCTCCC
DNA 2: TGGTGGCTACGACGGGATT
B24: GCCCGUA (DNA:RNA)
RNA: B7 RNA with A26C, A27C, G28C, G30U, G31A
DNA 1: CAATCTGAATTCCGGTCTCCC
DNA 2: TGGTGGCTACGACGGGATT
B25: ACCGCGU (DNA:RNA)
RNA: B1 RNA with G26C, U27C, C28G, A29C, C30G
DNA 1: CAATCTGAATTCCGGTCTCCC
DNA 2: TGGTGGCTACGACGGGATT
B26: CACAGUU (DNA:RNA)
RNA: B7 RNA with G25C, A27C, G28A, G30U, G31U
DNA 1: CAATCTGAATTCCGGTCTCCC
DNA 2: TGGTGGCTACGACGGGATT
B27: UAGGCGA (DNA:RNA)
RNA: B7 RNA with G25U, A27G, G29C, G31A
DNA 1: CAATCTGAATTCCGGTCTCCC
DNA 2: TGGTGGCTACGACGGGATT
B28: UGAAUAC (DNA:RNA)
RNA: B1 RNA with A25U, U27A, C28A, A29U, C30A, U31C
DNA 1: CAATCTGAATTCCGGTCTCCC
DNA 2: TGGTGGCTACGACGGGATT
B29: AACGUGG (DNA:RNA)
RNA: B7 RNA with G25A, A27C, G29U
DNA 1: CAATCTGAATTCCGGTCTCCC
DNA 2: TGGTGGCTACGACGGGATT
B30: ACCGAAU (DNA:RNA)
RNA: B1 RNA with G26C, U27C, C28G, C30A
DNA 1: CAATCTGAATTCCGGTCTCCC
DNA 2: TGGTGGCTACGACGGGATT
B31: UCGUGAC (DNA:RNA)
RNA: B7 RNA with G25U, A26C, A27G, G28U, G30A, G31C
DNA 1: CAATCTGAATTCCGGTCTCCC
DNA 2: TGGTGGCTACGACGGGATT

Residue numbers refer to the chain shown, from its start. This is one part of the list.

In this experiment the target is T1, RBFOX1 RRM (Homo sapiens, UniProt Q9NWB1 109-208).
T1 sequence: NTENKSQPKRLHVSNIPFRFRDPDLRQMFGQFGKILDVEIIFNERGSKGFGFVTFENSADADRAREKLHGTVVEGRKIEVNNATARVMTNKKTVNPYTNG
Description: EMSA; HiTS-Eq, 1 nM pool, 10 min; buffer printed only for the single-RNA assays: 10 mM Tris pH 7.5, 150 mM NaCl, 3.4 mM EDTA, 0.001% NP-40, 30 C. The following applies: tags: His6 N-terminal (pET28a); label: 5' 32P. The procedure, abridged:
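A pool of RNA with 7 randomized nucleotides, 5′-radiolabelled and with DNA-annealed flanks, was equilibrated at 1 nM for 10 min in 50 µL with purified RbFox RRM, wild type or mutant, across increasing protein concentrations. Free RNA was separated by 8% native PAGE, excised, reverse-transcribed, barcoded by PCR and sequenced. Relative association constants were obtained from read-count changes of each RNA species versus the control reaction and normalised to the cognate motif.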
(In EMSA bound probe runs differently from free probe, usually more slowly.)
In the case of B1, the binding signal is 0.00284 KA relative to UGCAUGU.

Turning to B2, the binding signal was 0.00157 KA relative to UGCAUGU.

Take B3: the binding signal was 0.015 KA relative to UGCAUGU.

As to B4, the binding signal is 0.0161 KA relative to UGCAUGU.

As to B5, the binding signal was 0.00269 KA relative to UGCAUGU.

For the molecule B6, the binding signal is 0.00704 KA relative to UGCAUGU.

Consider B7, for which the binding signal is 0.00926 KA relative to UGCAUGU.

With B8, the binding signal is 0.0125 KA relative to UGCAUGU.

As for B9, the binding signal was 0.00454 KA relative to UGCAUGU.

B10: the binding signal was 0.0286 KA relative to UGCAUGU.

Regarding B11, the binding signal is 0.00671 KA relative to UGCAUGU.

Turning to B12, the binding signal is 0.00317 KA relative to UGCAUGU.

With B13, the binding signal was 0.00706 KA relative to UGCAUGU.

Turning to B14, the binding signal is 0.000474 KA relative to UGCAUGU.

With B15, the binding signal was 0.00592 KA relative to UGCAUGU.

For the molecule B16, the binding signal was 0.00149 KA relative to UGCAUGU.

With B17, the binding signal is 0.00336 KA relative to UGCAUGU.

Consider B18, for which the binding signal is 0.0236 KA relative to UGCAUGU.

In the case of B19, the binding signal was 0.00723 KA relative to UGCAUGU.

Take B20: the binding signal is 0.018 KA relative to UGCAUGU.

Regarding B21, the binding signal is 0.00715 KA relative to UGCAUGU.

In the case of B22, the binding signal is 0.00135 KA relative to UGCAUGU.

For the molecule B23, the binding signal was 0.0245 KA relative to UGCAUGU.

For the molecule B24, the binding signal was 0.00913 KA relative to UGCAUGU.

Consider B25, for which the binding signal was 0.00429 KA relative to UGCAUGU.

For the molecule B26, the binding signal was 0.00341 KA relative to UGCAUGU.

For the molecule B27, the binding signal was 0.0114 KA relative to UGCAUGU.

On to B28, for which the binding signal was 0.0117 KA relative to UGCAUGU.

B29: the binding signal is 0.00913 KA relative to UGCAUGU.

With B30, the binding signal is 0.00648 KA relative to UGCAUGU.

Regarding B31, the binding signal is 0.00208 KA relative to UGCAUGU.
